In patent publication US12414980B2, “Pharmaceutical composition comprising RUNX3 protein and CDK4 inhibitor or mTOR inhibitor cotreatment for prevention or treatment of cancer” (GeneCraft Inc., priority 2020, dated 2025):

System: MKN28 stomach cancer cell line
Settings: administered simultaneously with adenovirus expressing Runx3 protein, FIG. 8

Compound | cancer apoptotic effect versus adenovirus expressing Runx3 protein alone
CC(=O)c1c(C)c2cnc(Nc3ccc(N4CCNCC4)cn3)nc2n(C2CCCC2)c1=O [PD0332991] | significantly increased
CO[C@H]1C[C@@H]2CC[C@@H](C)[C@@](O)(O2)C(=O)C(=O)N2CCCC[C@H]2C(=O)O[C@H]([C@H](C)C[C@@H]2CC[C@@H](O)[C@H](OC)C2)CC(=O)[C@H](C)/C=C(\C)[C@@H](O)[C@@H](OC)C(=O)[C@H](C)C[C@H](C)/C=C/C=C/C=C/1C [rapamycin] | significantly increased
